Data: the antibiotic and cytotoxicity screens of Wong et al. (2023)
The other results are listed elsewhere or left out.

What was measured:
HSkMC = human skeletal muscle cells; assay: cytotoxicity call (relative viability < 0.9); conditions: 10 µM
HepG2 = assay: cytotoxicity call (relative viability < 0.9); conditions: 10 µM
S. aureus RN4220 = assay: growth inhibition call (relative growth <= 0.2); conditions: 50 µM

C[C@H](NC(=O)N(C)C[C@@H]1OCc2ccccc2-c2ccccc2C(=O)N([C@@H](C)CO)C[C@H]1C)c1ccccc1
inactive: cytotoxicity call (HSkMC) | cytotoxicity call (HepG2) | growth inhibition call (S. aureus RN4220)

COc1ccc(NC(=O)Nc2ccc3c(c2)C(=O)N([C@H](C)CO)C[C@@H](C)[C@H](CN(C)S(=O)(=O)c2ccc(C)cc2)OCCCC[C@@H](C)O3)cc1
inactive: cytotoxicity call (HSkMC) | cytotoxicity call (HepG2) | growth inhibition call (S. aureus RN4220)

C[C@H](CO)N1C[C@H](C)[C@H](CN(C)S(=O)(=O)c2ccc(Cl)cc2)Oc2ccc(NC(=O)C3CC3)cc2C1=O
inactive: cytotoxicity call (HSkMC) | cytotoxicity call (HepG2) | growth inhibition call (S. aureus RN4220)

C[C@@H]1CN([C@H](C)CO)C(=O)Cc2cc(NC(=O)Cc3cn(C)c4ccccc34)ccc2O[C@H]1CN(C)Cc1ccc(C(=O)Nc2ccccc2N)cc1
inactive: cytotoxicity call (HSkMC) | cytotoxicity call (HepG2) | growth inhibition call (S. aureus RN4220)

N=C(N)NCCN1CCCCCCC1.O=S(=O)(O)O
inactive: cytotoxicity call (HSkMC) | cytotoxicity call (HepG2) | growth inhibition call (S. aureus RN4220)

COc1cccc(S(=O)(=O)Nc2ccc3c(c2)[C@@H]2C[C@H](CC(=O)NCCc4ccccc4)O[C@@H](CO)[C@@H]2O3)c1
inactive: cytotoxicity call (HSkMC) | cytotoxicity call (HepG2) | growth inhibition call (S. aureus RN4220)

CN[C@@H]1[C@@H](O[C@H]2O[C@H](CO)[C@@H](N)[C@H](O)[C@H]2O)O[C@H]2C[C@@H](N)[C@H](O[C@H]3[C@H](O)[C@@H](O)[C@H](N)C[C@@H]3N)O[C@@H]2[C@@H]1O
inactive: cytotoxicity call (HSkMC) | cytotoxicity call (HepG2) | growth inhibition call (S. aureus RN4220)

C[C@@H]1CCCCO[C@@H](CN(C)C(=O)Nc2ccccc2)[C@H](C)CN([C@H](C)CO)C(=O)c2cc(NC(=O)CCC(F)(F)F)ccc2O1
inactive: cytotoxicity call (HSkMC) | cytotoxicity call (HepG2) | growth inhibition call (S. aureus RN4220)
